The values that follow come from the supplement of paper PMC7826260.

Some of the results follow. Viral Rep nickase domains cut single-stranded DNA in vitro for 1 h at 37 °C with 3 µM enzyme; only the middle of the 90-letter strands is printed. Uncut reads are compared with the no-enzyme pool on a log2 scale; strong cutting gives strongly negative numbers. There is no active / inactive call. The scaling is to total reads; values above 0 arise when much of the pool is cut.

The test relates to T1, Rep nickase domain of tomato golden mosaic virus.
T1 sequence (protein, residues 1-124, tag omitted): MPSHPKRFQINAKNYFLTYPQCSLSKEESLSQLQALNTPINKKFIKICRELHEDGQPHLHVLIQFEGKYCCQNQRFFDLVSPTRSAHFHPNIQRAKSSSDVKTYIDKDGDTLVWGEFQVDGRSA
As to the kind of experiment: uncleaved DNA left, log2 of reads against the no-enzyme library (log2 ratio); higher = less cleavage (more negative = more Rep cleavage of the k-mer); sequences stand for … in CTCGTCCG…ACCGGAGA
On the procedure:
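A pool of 90-nt single-stranded DNAs with seven random bases just before the constant AC of the nick site (name = the seven bases) was cut by 3 µM recombinant His6-SUMO-tagged Rep nickase domain (300 nM DNA, 50 mM HEPES pH 8.0, 50 mM NaCl, 1 mM MnCl2, 1 h, 37 °C, three replicates). Uncut DNA was amplified and sequenced.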
Turning to ATGTGAC, the “uncleaved DNA left (log2)” value was -0.0109.
As to TCTAATC, the “uncleaved DNA left (log2)” value worked out at 0.105.
As to GAGTTAC, the “uncleaved DNA left (log2)” value was -0.0373.
As for CCGCGGC, the figure is -0.0497; as for CCAGATA, -0.0373.
As to GGTCACT, the “uncleaved DNA left (log2)” value was found to be 0.0359.
For TCGTCGG, the “uncleaved DNA left (log2)” value was 0.0471.
Take CAATATC: the “uncleaved DNA left (log2)” value was -2.55.
With GTTATTT, the “uncleaved DNA left (log2)” value amounted to 0.0857.
Take CAGACCT: the “uncleaved DNA left (log2)” value is -0.0996.
As for CCACCAT, the figure is -0.0209.
As for ACTCACC, the figure is 0.0889; as for TCAACTA, -0.0506.
Take AACCCTA: the “uncleaved DNA left (log2)” value was -0.00579.
As for GCCTGGC, the figure is 0.112; as for ACAGAGG, 0.0818; as for AGCTGCT, -0.0179.
Consider CTCGAAA, for which the “uncleaved DNA left (log2)” value was determined as 0.0355.
In the case of TCACTGT, the “uncleaved DNA left (log2)” value is -0.173.
Take TTCGGAC: the “uncleaved DNA left (log2)” value is 0.0234.
In the case of CTTTTCA, the “uncleaved DNA left (log2)” value is -0.0764.
Take ATCCATA: the “uncleaved DNA left (log2)” value was -0.0302.
Regarding GTGACTG, the “uncleaved DNA left (log2)” value came out at 0.0368.
For AGGGGTC, the “uncleaved DNA left (log2)” value was found to be 0.0531.
As for TAATATT, the figure is -4.87; as for TGAGCCC, -0.056; as for AGTGAGA, 0.00874.
In the case of TCAAGTC, the “uncleaved DNA left (log2)” value was -0.104.
For the sequence ATATCGT, the “uncleaved DNA left (log2)” value is -0.0218.
For GTAGAAA, the “uncleaved DNA left (log2)” value worked out at 0.222.
As for GGCGCGA, the figure is 0.149; as for AGAGCTG, 0.0633; as for GGATGCT, 0.0705.
AAGGACC: the “uncleaved DNA left (log2)” value is 0.0564.
In the case of TCTCACA, the “uncleaved DNA left (log2)” value was determined as 0.0261.
Regarding CTACAGA, the “uncleaved DNA left (log2)” value is 0.04.
As for ATTCCTA, the figure is -0.125; as for TAGTAAA, 0.0973.
Take TGAAACA: the “uncleaved DNA left (log2)” value came out at 0.00961.
Take CTCATAC: the “uncleaved DNA left (log2)” value was -0.0601.
